According to paper PMC10026737:
No constants are given. Whether binding was seen depends on the method and setting. In cells and extracts the contact can be indirect. Some binding calls cover weakened binding; strength is not graded here. Tags and fused reporters may be left off the sequences shown.

B1: V5-Drosha (enzyme, UniProt Q9NRR4 1-1374)
chain: MMQGNTCHRMSFHPGRGCPRGRGGHGARPSAPSFRPQNLRLLHPQQPPVQYQYEPPSAPSTTFSNSPAPNFLPPRPDFVPFPPPMPPSAQGPLPPCPIRPPFPNHQMRHPFPVPPCFPPMPPPMPCPNNPPVPGAPPGQGTFPFMMPPPSMPHPPPPPVMPQQVNYQYPPGYSHHNFPPPSFNSFQNNPSSFLPSANNSSSPHFRHLPPYPLPKAPSERRSPERLKHYDDHRHRDHSHGRGERHRSLDRRERGRSPDRRRQDSRYRSDYDRGRTPSRHRSYERSRERERERHRHRDNRRSPSLERSYKKEYKRSGRSYGLSVVPEPAGCTPELPGEIIKNTDSWAPPLEIVNHRSPSREKKRARWEEEKDRWSDNQSSGKDKNYTSIKEKEPEETMPDKNEEEEEELLKPVWIRCTHSENYYSSDPMDQVGDSTVVGTSRLRDLYDKFEEELGSRQEKAKAARPPWEPPKTKLDEDLESSSESECESDEDSTCSSSSDSEVFDVIAEIKRKKAHPDRLHDELWYNDPGQMNDGPLCKCSAKARRTGIRHSIYPGEEAIKPCRPMTNNAGRLFHYRITVSPPTNFLTDRPTVIEYDDHEYIFEGFSMFAHAPLTNIPLCKVIRFNIDYTIHFIEEMMPENFCVKGLELFSLFLFRDILELYDWNLKGPLFEDSPPCCPRFHFMPRFVRFLPDGGKEVLSMHQILLYLLRCSKALVPEEEIANMLQWEELEWQKYAEECKGMIVTNPGTKPSSVRIDQLDREQFNPDVITFPIIVHFGIRPAQLSYAGDPQYQKLWKSYVKLRHLLANSPKVKQTDKQKLAQREEALQKIRQKNTMRREVTVELSSQGFWKTGIRSDVCQHAMMLPVLTHHIRYHQCLMHLDKLIGYTFQDRCLLQLAMTHPSHHLNFGMNPDHARNSLSNCGIRQPKYGDRKVHHMHMRKKGINTLINIMSRLGQDDPTPSRINHNERLEFLGDAVVEFLTSVHLYYLFPSLEEGGLATYRTAIVQNQHLAMLAKKLELDRFMLYAHGPDLCRESDLRHAMANCFEALIGAVYLEGSLEEAKQLFGRLLFNDPDLREVWLNYPLHPLQLQEPNTDRQLIETSPVLQKLTEFEEAIGVIFTHVRLLARAFTLRTVGFNHLTLGHNQRMEFLGDSIMQLVATEYLFIHFPDHHEGHLTLLRSSLVNNRTQAKVAEELGMQEYAITNDKTKRPVALRTKTLADLLESFIAALYIDKDLEYVHTFMNVCFFPRLKEFILNQDWNDPKSQLQQCCLTLRTEGKEPDIPLYKTLQTVGPSHARTYTVAVYFKGERIGCGKGPSIQQAEMGAAMDALEKYNFPQMAHQKRFIERKYRQELKEMRWEREHQEREPDETEDIKK
B2: endogenous DGCR8 (protein, UniProt Q8WYQ5 1-773)
chain: METDESPSPLPCGPAGEAVMESRARPFQALPREQSPPPPLQTSSGAEVMDVGSGGDGQSELPAEDPFNFYGASLLSKGSFSKGRLLIDPNCSGHSPRTARHAPAVRKFSPDLKLLKDVKISVSFTESCRSKDRKVLYTGAERDVRAECGLLLSPVSGDVHACPFGGSVGDGVGIGGESADKKDEENELDQEKRVEYAVLDELEDFTDNLELDEEGAGGFTAKAIVQRDRVDEEALNFPYEDDFDNDVDALLEEGLCAPKKRRTEEKYGGDSDHPSDGETSVQPMMTKIKTVLKSRGRPPTEPLPDGWIMTFHNSGVPVYLHRESRVVTWSRPYFLGTGSIRKHDPPLSSIPCLHYKKMKDNEEREQSSDLTPSGDVSPVKPLSRSAELEFPLDEPDSMGADPGPPDEKDPLGAEAAPGALGQVKAKVEVCKDESVDLEEFRSYLEKRFDFEQVTVKKFRTWAERRQFNREMKRKQAESERPILPANQKLITLSVQDAPTKKEFVINPNGKSEVCILHEYMQRVLKVRPVYNFFECENPSEPFGASVTIDGVTYGSGTASSKKLAKNKAARATLEILIPDFVKQTSEEKPKDSEELEYFNHISIEDSRVYELTSKAGLLSPYQILHECLKRNHGMGDTSIKFEVVPGKNQKSEYVMACGKHTVRGWCKNKRVGKQLASQKILQLLHPHVKNWGSLLRMYGRESSKMVKQETSDKSVIELQQYAKKNKPNLHILSKLQEEMKRLAEEREETRKKPKMSIVASAQPGGEPLCTVDV
B3: endogenous Drosha (enzyme, UniProt Q9NRR4 1-1374)
chain: B1 chain

Assays:
[1] = target: T1, Flag-USP36 deletion mutant, C-terminal nucleolar localization signal containing region (aa 801-1121) (UniProt Q9P275); experiment: co-IP; H1299 cells co-transfected with a Flag-tagged and a V5-tagged protein; NP40 lysis buffer (50 mmol/L Tris-HCl pH 8.0, 0.5% NP-40, 1 mmol/L EDTA, 150 mmol/L NaCl); IP with anti-Flag antibody, immunoblot
T1 sequence: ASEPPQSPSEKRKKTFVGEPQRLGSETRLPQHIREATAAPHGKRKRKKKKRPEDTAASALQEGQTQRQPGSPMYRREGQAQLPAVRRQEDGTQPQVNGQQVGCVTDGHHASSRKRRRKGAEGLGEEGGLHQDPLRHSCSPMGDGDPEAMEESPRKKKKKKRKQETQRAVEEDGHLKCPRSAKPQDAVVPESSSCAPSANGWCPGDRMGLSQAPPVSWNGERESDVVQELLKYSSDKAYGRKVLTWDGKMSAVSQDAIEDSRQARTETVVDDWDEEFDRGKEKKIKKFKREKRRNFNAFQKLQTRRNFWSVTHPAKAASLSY

[2] = target: T2, Flag-tagged full-length USP36 (wild-type) (UniProt Q9P275); experiment: as above
T2 sequence: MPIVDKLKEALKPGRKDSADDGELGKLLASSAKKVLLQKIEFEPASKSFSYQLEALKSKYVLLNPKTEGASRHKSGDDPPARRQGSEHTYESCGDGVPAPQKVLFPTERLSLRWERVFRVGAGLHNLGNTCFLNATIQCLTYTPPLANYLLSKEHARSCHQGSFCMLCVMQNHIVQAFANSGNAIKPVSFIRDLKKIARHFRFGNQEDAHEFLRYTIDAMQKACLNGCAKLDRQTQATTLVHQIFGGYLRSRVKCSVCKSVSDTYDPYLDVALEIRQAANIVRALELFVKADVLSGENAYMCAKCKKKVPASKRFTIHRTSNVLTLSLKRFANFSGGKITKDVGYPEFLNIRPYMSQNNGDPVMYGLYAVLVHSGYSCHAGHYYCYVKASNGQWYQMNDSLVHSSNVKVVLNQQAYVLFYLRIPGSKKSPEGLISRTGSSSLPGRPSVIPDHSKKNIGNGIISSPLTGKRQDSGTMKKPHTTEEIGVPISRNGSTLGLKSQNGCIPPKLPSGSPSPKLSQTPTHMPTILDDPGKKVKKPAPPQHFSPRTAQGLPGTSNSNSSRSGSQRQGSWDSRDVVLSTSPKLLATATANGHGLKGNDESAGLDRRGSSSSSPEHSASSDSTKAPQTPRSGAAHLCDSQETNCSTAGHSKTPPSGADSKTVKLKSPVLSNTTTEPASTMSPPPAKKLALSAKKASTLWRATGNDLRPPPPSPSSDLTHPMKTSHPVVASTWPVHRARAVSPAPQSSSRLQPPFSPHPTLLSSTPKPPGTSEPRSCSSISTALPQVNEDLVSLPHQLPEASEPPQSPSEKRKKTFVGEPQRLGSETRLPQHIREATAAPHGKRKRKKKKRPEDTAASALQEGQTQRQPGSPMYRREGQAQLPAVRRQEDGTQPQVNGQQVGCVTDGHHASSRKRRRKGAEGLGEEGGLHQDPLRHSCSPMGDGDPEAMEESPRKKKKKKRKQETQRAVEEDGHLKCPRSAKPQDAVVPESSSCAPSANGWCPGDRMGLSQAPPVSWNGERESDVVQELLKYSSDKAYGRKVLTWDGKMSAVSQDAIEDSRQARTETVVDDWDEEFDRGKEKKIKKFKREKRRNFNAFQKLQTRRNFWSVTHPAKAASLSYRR

[3] = target: T3, Flag-USP36 deletion mutant, N-terminal USP domain containing region (amino acids 1-420) (UniProt Q9P275); experiment: as above
T3 sequence: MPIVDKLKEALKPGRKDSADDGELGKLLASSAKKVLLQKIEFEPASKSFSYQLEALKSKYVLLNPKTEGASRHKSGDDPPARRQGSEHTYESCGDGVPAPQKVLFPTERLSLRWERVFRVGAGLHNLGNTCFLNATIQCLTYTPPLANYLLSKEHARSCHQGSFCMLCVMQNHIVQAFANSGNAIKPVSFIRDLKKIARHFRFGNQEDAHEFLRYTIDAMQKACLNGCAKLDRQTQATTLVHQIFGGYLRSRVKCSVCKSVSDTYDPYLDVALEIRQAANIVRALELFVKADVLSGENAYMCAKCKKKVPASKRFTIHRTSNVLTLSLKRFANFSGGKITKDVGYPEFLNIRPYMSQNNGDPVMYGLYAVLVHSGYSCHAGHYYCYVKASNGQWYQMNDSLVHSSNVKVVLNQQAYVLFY

[4] = target: T2, Flag-tagged full-length USP36 (wild-type); experiment: co-IP; H1299 cells transfected with Flag-USP36 or control; IP with anti-Flag antibody, immunoblot for endogenous DGCR8 and Drosha
[5] = target: T2, Flag-tagged full-length USP36 (wild-type); experiment: co-IP; 293 cells transfected with Flag-USP36 together with scr control, Drosha siRNA or DGCR8 siRNA (single siRNA or pool); IP with anti-Flag antibody, immunoblot

| Binder | binding [1] | binding [2] | binding [3] | binding [4] | binding [5] |
| --- | --- | --- | --- | --- | --- |
| B1 | binds | binds | binds | – | – |
| B2 | – | – | – | binds | binds |
| B3 | – | – | – | binds | binds |
